# Results taken from PubChem BioAssay AID504333 (National Center for Advancing Translational Sciences (NCATS), 2011).
# “And” between values parts separate entries of the source, which are not always exact repeats. Equal entries are not always repeated. The whole screen tested about 360,000 compounds, of which about 16,000 (4.4%) were called active. The shares of active, inactive and inconclusive entries below differ from those in the screen. The call rests on the fitted dose curve; in most records, active means well fitted inhibition curve with a large enough effect; inconclusive means small, poorly fitted or top-dose-only effect; inactive means no such curve, though single readings can be large or run the other way. Potencies of inconclusive entries are doubtful fits and often do not repeat.
# Target: Bromodomain adjacent to zinc finger domain protein 2B (Homo sapiens) (UniProt Q9UIF8)
# Assay: qHTS Assay for Inhibitors of BAZ2B; further: nearly all actives have a fitted effect of over 60% in size
# Details: AlphaScreen BAZ2B-H3K14Ac peptide displacement; series mostly up to 114 µM
# How it was run: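 AlphaScreen displacement of biotin-H3(5-23)K14Ac peptide (50 nM final) from BAZ2B (50 nM final) in PBS pH 7.4, 0.01% Tween-20; complex preformed 30 min RT, then compounds (top 110 uM) 30 min RT, beads 20 min dark.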
# Potency means the concentration at half of the fitted maximal effect; tags describe the fitted curve by direction and shape.
# Sequence of UniProt Q9UIF8 (Q9UIF8 whole entry, looked up, the tested form may be a part): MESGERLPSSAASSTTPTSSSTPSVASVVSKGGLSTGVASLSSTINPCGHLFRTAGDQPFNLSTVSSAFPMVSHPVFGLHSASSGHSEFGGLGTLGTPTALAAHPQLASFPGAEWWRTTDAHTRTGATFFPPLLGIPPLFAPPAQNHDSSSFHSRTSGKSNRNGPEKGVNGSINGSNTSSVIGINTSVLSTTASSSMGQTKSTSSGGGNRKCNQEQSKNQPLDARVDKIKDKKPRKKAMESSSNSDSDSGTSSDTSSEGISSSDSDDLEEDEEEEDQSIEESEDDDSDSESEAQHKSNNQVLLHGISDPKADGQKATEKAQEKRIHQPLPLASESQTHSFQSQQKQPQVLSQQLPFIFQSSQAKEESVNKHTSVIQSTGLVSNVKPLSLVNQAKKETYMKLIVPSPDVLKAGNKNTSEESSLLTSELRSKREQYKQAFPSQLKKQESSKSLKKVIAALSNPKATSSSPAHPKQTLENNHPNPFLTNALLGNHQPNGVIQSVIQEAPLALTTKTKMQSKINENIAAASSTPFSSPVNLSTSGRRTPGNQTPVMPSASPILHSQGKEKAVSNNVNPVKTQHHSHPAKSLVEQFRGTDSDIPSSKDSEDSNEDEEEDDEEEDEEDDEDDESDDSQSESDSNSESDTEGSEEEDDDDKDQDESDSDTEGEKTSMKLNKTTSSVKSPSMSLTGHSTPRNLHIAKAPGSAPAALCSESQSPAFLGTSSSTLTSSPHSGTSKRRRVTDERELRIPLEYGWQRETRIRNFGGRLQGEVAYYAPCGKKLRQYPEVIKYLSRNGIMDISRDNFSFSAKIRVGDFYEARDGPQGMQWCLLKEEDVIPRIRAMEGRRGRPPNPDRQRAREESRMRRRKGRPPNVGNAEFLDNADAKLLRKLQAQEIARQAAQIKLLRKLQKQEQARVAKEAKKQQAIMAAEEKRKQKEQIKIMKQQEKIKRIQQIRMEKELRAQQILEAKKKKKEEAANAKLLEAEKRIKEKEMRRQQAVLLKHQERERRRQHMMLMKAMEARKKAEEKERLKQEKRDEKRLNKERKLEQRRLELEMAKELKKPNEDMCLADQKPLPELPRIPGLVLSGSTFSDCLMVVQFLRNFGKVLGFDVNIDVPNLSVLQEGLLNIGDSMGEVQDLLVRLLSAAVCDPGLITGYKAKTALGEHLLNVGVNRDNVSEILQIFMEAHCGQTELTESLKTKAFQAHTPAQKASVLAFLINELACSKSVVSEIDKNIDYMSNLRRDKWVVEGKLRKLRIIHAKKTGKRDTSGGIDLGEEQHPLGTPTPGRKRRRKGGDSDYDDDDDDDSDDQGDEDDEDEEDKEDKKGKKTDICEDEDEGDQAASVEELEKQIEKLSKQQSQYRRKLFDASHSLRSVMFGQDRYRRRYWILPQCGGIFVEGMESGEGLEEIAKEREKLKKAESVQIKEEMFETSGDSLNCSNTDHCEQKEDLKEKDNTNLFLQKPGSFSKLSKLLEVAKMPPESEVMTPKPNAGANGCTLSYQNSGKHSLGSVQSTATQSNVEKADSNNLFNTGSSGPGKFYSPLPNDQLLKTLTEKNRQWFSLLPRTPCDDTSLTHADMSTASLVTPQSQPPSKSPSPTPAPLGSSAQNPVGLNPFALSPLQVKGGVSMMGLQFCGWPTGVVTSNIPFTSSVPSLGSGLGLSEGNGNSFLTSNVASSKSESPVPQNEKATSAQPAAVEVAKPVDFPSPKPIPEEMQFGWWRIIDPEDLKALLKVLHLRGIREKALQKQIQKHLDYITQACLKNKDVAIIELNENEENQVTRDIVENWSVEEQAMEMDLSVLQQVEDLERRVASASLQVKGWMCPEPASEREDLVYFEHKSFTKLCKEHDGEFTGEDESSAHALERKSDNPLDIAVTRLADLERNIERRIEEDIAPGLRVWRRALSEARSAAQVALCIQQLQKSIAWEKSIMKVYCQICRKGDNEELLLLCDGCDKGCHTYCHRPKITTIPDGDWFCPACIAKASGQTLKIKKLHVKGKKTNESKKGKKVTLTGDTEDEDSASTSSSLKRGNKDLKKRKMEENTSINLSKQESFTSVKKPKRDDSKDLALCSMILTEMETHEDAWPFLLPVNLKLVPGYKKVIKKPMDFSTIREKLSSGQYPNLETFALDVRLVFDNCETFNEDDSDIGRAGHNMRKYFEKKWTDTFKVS
row,Structure (SMILES),Potency
1,CC1(C)C(C=C(Cl)Cl)C1C(=O)N1CCN(Cc2ccccc2)CC1 (centres undefined),inactive
2,CCc1ccc(Nc2n[n+](-c3ccccc3)c(-c3ccc(C(=O)O)cc3)s2)cc1,active: 35.5 µM
3,C=C(C)CCC(C)N1CCC(n2nccc2NC(=O)CCCc2ccccc2)CC1 (centres undefined),inactive
4,C=CCC1C=C(Cc2ccccc2)CC(CC=C)N1 (centres undefined),inactive
5,Cc1ccc(NC(=O)CN2C(=O)S/C(=C\c3cccn3-c3cccc(C(=O)O)c3)C2=O)c(C)c1,active: 39.8 µM
6,COc1ccc(OC)c(S(=O)(=O)Nc2ccc3c(c2)n(C)c(=O)n3C)c1,"inconclusive: 79.4 µM [inhibitor, single point] and inconclusive: 89.1 µM [inhibitor, single point]"
7,CCCc1c(C(=O)NNc2ccc(C)cc2)cnn1-c1ccccc1,"inconclusive: 50.1 µM [inhibitor, partial curve]"
8,C=CCc1ccccc1OCC(O)CN1CCN(Cc2ccc3c(c2)OCO3)CC1 (centres undefined),active: 56.2 µM
9,O=C(COc1ccc(-c2ccccc2)cc1)N/N=C/c1cc(O)ccc1Br,"inconclusive: 79.4 µM [inhibitor, single point]"
10,CC(C)(C)c1ccc(-c2nc(C#N)c(NCc3ccncc3)o2)cc1,active: 79.4 µM
11,COc1ccccc1NC(=O)C1=C(C)Nc2ncnn2C1c1ccccc1C (centres undefined),"inconclusive: 79.4 µM [inhibitor, single point]"
12,CC(=O)N1c2ccc(S(=O)(=O)N3CCCC(C(=O)NCc4ccccc4Cl)C3)cc2CC1C (centres undefined),"inconclusive: 79.4 µM [inhibitor, single point]"
13,CC[n+]1c(/C=C/C=C/N(C(C)=O)c2ccccc2)sc2ccccc21,active: 28.2 µM
14,O=C1C(SCCO)=C(SCCO)C(=O)c2ccccc21,"inconclusive: 79.4 µM [inhibitor, single point]"
15,COCc1ccc(C(=O)OC(C)C(=O)Nc2c(C)n(C)n(-c3ccccc3)c2=O)cc1 (centres undefined),inactive
16,[2H]c1c([2H])c([2H])c(-c2nc(N3CCCCCC3)sc2C(=O)c2ccccc2)c([2H])c1[2H],inactive
17,CCOC(=O)c1cccc(NC(=O)CCc2nc3cccnc3n2-c2ccccc2)c1,"inconclusive: 79.4 µM [inhibitor, partial curve]"
18,COc1cc(OC)cc(-c2sc3ccc(OC)cc3c2C#CC(C)(C)O)c1,inactive
19,CCSc1ncc(Cl)c(C(=O)Nc2ccccc2OC)n1,"inconclusive: 3.55 µM [inhibitor, full curve, poor fit]"
20,CCc1ccc(/C=C2\SC(=S)N(CCC(=O)NC3=NCCS3)C2=O)cc1,inactive
21,O=C(CSc1nc(NS(=O)(=O)c2ccccc2)cc(=O)[nH]1)Nc1ccc(F)cc1,"inconclusive: 89.1 µM [inhibitor, single point]"
22,COc1cc(/C=C/C(=O)CC(=O)/C=C/c2ccc(O)c(OC)c2)ccc1O,active: 39.8 µM
23,O=c1c(Oc2ccccc2F)coc2cc(OCc3cnn(-c4ccccc4)c3)ccc12,"inconclusive: 79.4 µM [inhibitor, single point]"
24,CN(C)CC(C)(C)CNS(=O)(=O)c1ccc(Cl)c(Cl)c1,"inconclusive: 79.4 µM [inhibitor, single point]"
25,Cc1cccc(N2CCN(S(=O)(=O)c3ccc(-c4cnc(C5CC5)o4)cc3)CC2)c1C,"inconclusive: 14.1 µM [inhibitor, partial curve]"

row,Structure (SMILES),Potency
1,COc1ccccc1CNC(=O)CC(c1ccc(F)cc1)N1Cc2ccccc2C1=O (centres undefined),inactive
2,Cc1ccccc1-c1noc(-c2ccc(NCC3CCCO3)c([N+](=O)[O-])c2)n1 (centres undefined),inactive
3,N#C/C(=C\C=C\c1ccccc1[N+](=O)[O-])C(=O)NCc1ccccc1,"inconclusive: 44.7 µM [inhibitor, partial curve]"
4,Fc1cc(F)cc(-c2oncc2-c2nnnn2-c2ccccc2)c1,inactive
5,O=C(NCC(c1ccco1)S(=O)(=O)c1cccs1)c1ccccc1 (centres undefined),inactive
6,Cc1cccc(CS(=O)(=O)c2nnc([C@H](Cc3ccccc3)NC(=O)OC(C)(C)C)o2)c1,inactive
7,COc1ccc(N2CCN(S(=O)(=O)c3ccc(CC(C)C)cc3)CC2)cc1,inactive
8,CCCn1c(CN2CCN(C)CC2)nc2ccccc21,"inconclusive: 89.1 µM [inhibitor, single point]"
9,CCNc1ccc(Br)cc(C(=O)/C=C/c2ccc(Cl)cc2)c1=O,active: 10 µM
10,Clc1cccc(Cl)c1CSc1nnc(-c2sccc2-n2cccc2)o1,"inconclusive: 89.1 µM [inhibitor, single point]"
11,CCS(=O)(=O)N1CCc2cc(C(=O)Nc3ccc(Br)cc3F)ccc21,"inconclusive: 89.1 µM [inhibitor, single point]"
12,O=C(CN(c1ccccc1)S(=O)(=O)c1ccccc1[N+](=O)[O-])Nc1cccnc1,"inconclusive: 89.1 µM [inhibitor, single point]"
13,COc1cc(C(=O)NCC(c2ccco2)S(=O)(=O)c2cccs2)cc(OC)c1OC (centres undefined),inactive
14,Cc1cc(C)c(OCCCCN2CCNCC2)c(C)c1,"inconclusive: 89.1 µM [inhibitor, single point]"
15,COc1ccc(O)c(/C=N/N2CCCCC2)c1,active: 50.1 µM
16,O=c1nc(Nc2ccc(Br)cc2)sc2ccc([N+](=O)[O-])cc12,"inconclusive: 89.1 µM [inhibitor, single point]"
17,COc1ccccc1NC(=O)Cn1c(CCC(=O)O)ccc1-c1ccc(C)cc1,"inconclusive: 70.8 µM [inhibitor, single point]"
18,C=CCOC(=O)c1[nH]c2c(c1C)C(=O)CC(c1ccco1)C2 (centres undefined),active: 50.1 µM
19,CC(=O)Nc1ccc(NC(=O)C(C)OC(=O)CN2C(=O)C3CCCCC3C2=O)cc1 (centres undefined),inactive
20,Cc1cc(C(=O)CCC(=O)NCc2ccccc2F)c(C)s1,inactive
21,COc1ccc(OC)c(-c2cc(C(=O)Nc3cnn(Cc4ccc(Cl)cc4Cl)c3)no2)c1,inactive
22,O=C(NC(=S)Nc1ccc(S(=O)(=O)N2CCOCC2)cc1)c1ccccc1[N+](=O)[O-],"inconclusive: 56.2 µM [inhibitor, partial curve]"
23,CN1CCN(c2ccc(NC(=O)c3ccc(Oc4ccccc4)cc3)cc2)CC1,"inconclusive: 50.1 µM [inhibitor, partial curve]"
24,O=C1/C(=C/c2ccco2)SC(=S)N1c1cccnc1,active: 10 µM
25,COC(=O)c1cc(C)sc1NC(=O)C1CC=CCC1C(=O)O (centres undefined),inactive

row,Structure (SMILES),Potency
1,COc1ccc(C(=O)NC(=S)N2CC(C)OC(C)C2)cc1OC (centres undefined),"inconclusive: 79.4 µM [inhibitor, single point]"
2,Cc1cccc(OCC(O)CN2CCN(CCN3C(=O)c4cccc5cccc(c45)C3=O)CC2)c1C (centres undefined),"inconclusive: 44.7 µM [inhibitor, partial curve]"
3,CN(C)C1CCN(Cc2cc(COCc3ccccc3)c3cccnc3c2O)C1 (centres undefined),active: 10 µM
4,COc1ccc2nc(NC(=O)C3CCCN3S(=O)(=O)c3ccc(C)cc3)sc2c1 (centres undefined),inactive
5,Cc1cccc(NC(=S)NCc2cccn2C)c1,"inconclusive: 56.2 µM [inhibitor, partial curve]"
6,Cc1noc(/C=C/c2ccccc2F)c1S(=O)(=O)N1CCC(C(=O)N(C)Cc2ccco2)CC1,inactive
7,CCC(=O)N1CCc2cc(Br)cc(S(=O)(=O)N3CCCC(C(=O)NCc4ccccc4)C3)c21 (centres undefined),inactive
8,COC(=O)c1c(N)n(-c2cc(Cl)cc(Cl)c2)c2nc3ccccc3nc12,"inconclusive: 79.4 µM [inhibitor, single point]"
9,CN(C)C(=O)c1ccc(NC(=O)COC(=O)C2CCN(S(=O)(=O)c3ccc4c(c3)OCCO4)CC2)cc1,inactive
10,Nc1nc(CN2CCN(c3ccccc3)CC2)nc(N2CCCc3ccccc32)n1,"inconclusive: 39.8 µM [inhibitor, partial curve]"
11,CCN(CC)c1ccc(NC(=O)CNCc2ccccc2Cl)c(C)c1,active: 17.8 µM
12,Oc1ccc(/C=N/Nc2ccc(Cl)nn2)cc1O,inactive
13,Cc1noc(-c2ccc(NCc3ccccc3)c([N+](=O)[O-])c2)n1,inactive
14,COc1ccc(OC)c(-n2c(-c3cnccn3)n[nH]c2=S)c1,"inconclusive: 31.6 µM [inhibitor, single point]"
15,O=C(c1ccc2nc[nH]c2c1)N1CCN(c2cccc(C(F)(F)F)c2)CC1,"inconclusive: 79.4 µM [inhibitor, single point]"
16,CCN(c1ccccc1)S(=O)(=O)c1ccc(C(=O)Nc2nnc(COC)o2)cc1,active: 56.2 µM
17,O=C(O)CCC(=O)N1N=C(c2cccs2)CC1c1cn(-c2ccccc2)nc1-c1ccccc1 (centres undefined),"inconclusive: 50.1 µM [inhibitor, partial curve]"
18,Cc1snc(S(=O)(=O)/C(C#N)=N\Nc2ccccc2)c1C#N,"inconclusive: 70.8 µM [inhibitor, single point]"
19,COc1ccc(CC2=C(O)c3ccccc3C(=O)C2=O)cc1,"inconclusive: 50.1 µM [inhibitor, partial curve]"
20,CCCN1Cc2cccc(C(=O)Nc3cc(C)cc(C)c3)c2C1=O,inactive
21,CC(=O)Nc1ccc(C)cc1-c1nc2ccccc2n(CC(=O)Nc2cc(Cl)ccc2C)c1=O,"inconclusive: 89.1 µM [inhibitor, single point]"
22,O=C(COn1nnc2ccccc21)N1CCN(Cc2ccccc2)CC1,inactive
23,O=C(c1ccccc1SCc1ccccc1)N1CCCCCC1,inactive
24,C#CCOCCOCCOCCNc1nc(N2CCN(C(=O)CCCCCCCCCCNC(=O)[C@H]([C@@H](C)CC)n3cc(CCCCN=C(N)N)nn3)CC2)nc(N2CCN(C(=O)CCCCCCCCCCNC(=O)[C@H](CCCCN)n3cc(C[C@@H](C)CC)nn3)CC2)n1,active: 50.1 µM
